SMILES strings stand for the structures. The campaign covered roughly 52,000 compounds. About 1,700 (3.3%) were called active. Rule as the data show it: active = survival mostly below about 52% (no sharp cut-off); inactive = mostly above about 56%. Some of the results follow.

In the test the test system is Wild type. The experiment in a line: growth inhibition of S. aureus wild type versus tarO mutant, primary screen, teichoic acid synthesis inhibitors, RN4220, OD600 (AID 463173). Conditions: S. aureus RN4220 wild type/DeltatarO growth, OD600, 18 h, hits give low values, screened at 18.75 µg/mL (by protocol).
For `Cc1cc(OC(C)C(=O)N2CCC(c3nc4ccccc4o3)CC2)ccc1Cl` (centres undefined), the survival is inactive: 53%.

As to `Cc1ccc(CSCCNC(=O)C2CCN(S(=O)(=O)Cc3ccccc3)CC2)cc1`, the survival was inactive: 105%.

Turning to `COc1cccc(CNC(=O)Cn2nc(-c3ccc(C)cc3)ccc2=O)c1`, the survival was inactive: 59%. `COc1ccccc1NC(=O)CSc1ccc(-c2ccccn2)nn1`: the survival is inactive: 85%. As for `Cc1ccc(N(C)C(CNS(=O)(=O)c2ccccc2)c2ccccc2)cc1` (centres undefined), the figure is inactive: 93%; as for `CCCNC(=O)C1CCN(C(=O)N2CC(C)Oc3ccccc32)CC1` (centres undefined), inactive: 85%.

With `CCn1ccc2cc(S(=O)(=O)N3CCCN(C(=O)Nc4cccc(SC)c4)CC3)ccc21`, the survival was inactive: 60%.

Turning to `Cc1ccc(NC(=O)Cn2cc(C(=O)c3ccco3)c3ccccc32)cc1C`, the survival was inactive: 59%.

For the compound `CCCCN(C)S(=O)(=O)c1ccc(NC2=NS(=O)(=O)c3ccccc32)cc1`, the survival is inactive: 82%. As for `COc1ccc(-n2ccnc2SCC(=O)Nc2cccc(OC)c2)cc1`, the figure is inactive: 120%; as for `Cc1cc2oc(C(=O)Nc3ccc(S(=O)(=O)N4CCC(C)CC4)cc3)cc(=O)c2cc1C`, inactive: 93%. Take `Cc1ccc(N2C(=O)CSC2=S)c(C)c1`: the survival was inactive: 106%. As for `CC(C)NC(=O)Cc1ccc(Br)cc1`, the figure is inactive: 103%. As for `Cc1ccc(-n2nc3c(N4CCC(C(=O)NC5CCCCC5)CC4)nnc(C)c3c2C)cc1`, the figure is inactive: 71%; as for `C=CCn1c(O)c(CN2CCOCC2)c(C)c(C#N)c1=O`, inactive: 104%. As for `COc1ccc(-n2ncc(C(=O)N3CCN(C(=O)c4ccco4)CC3)c2C2CCN(C(=O)OC(C)(C)C)CC2)cc1`, the figure is inactive: 68%; as for `CC(C)Cc1ccc(S(=O)(=O)NCc2nc3cccnc3n2Cc2ccccc2)cc1`, inactive: 120%; as for `O=C1c2[nH]nc(-c3ccccc3O)c2C(c2cccc(O)c2)N1Cc1cccnc1` (centres undefined), inactive: 87%.

Turning to `COc1ccc(-c2ccc(CNCCCSc3nnnn3C)o2)cc1Cl`, the survival is inactive: 83%. As for `CCc1ccc(/C=C(/C#N)C(=O)OC)s1`, the figure is inactive: 107%. As for `CC1(C)CC(NCc2ccccc2)CCO1` (centres undefined), the figure is inactive: 104%; as for `CCCCCOc1ccccc1CN1C(=O)C(=O)c2cc(C)ccc21`, inactive: 105%; as for `O=C(O)CSCC(=O)Nc1cccc(C(F)(F)F)c1`, inactive: 108%. As for `COc1ccc(NC(=O)c2c(NCc3ccc(OC)c(OC)c3OC)sc3c2CCC3)c(OC)c1`, the figure is inactive: 92%; as for `Cc1ccc(/C=C/C(=O)N2CCC(c3nc4ccccc4o3)CC2)cc1`, inactive: 98%; as for `Cc1onc(-c2ccccc2)c1C(=O)NC(C)C`, inactive: 111%. As to `Cc1ccc(N(C)S(=O)(=O)c2ccc(-c3coc(C)n3)cc2)cc1`, the survival was inactive: 70%.

As for `COc1ccccc1N1CCN(CCCNC(=O)c2nnc(Cc3ccc(F)cc3Cl)o2)CC1`, the survival is inactive: 79%. Turning to `Cc1ccc(NC(=O)CN2C(=O)COc3ccc(S(=O)(=O)N4CCOCC4)cc32)cc1N(C)C`, the survival is inactive: 101%. As for `Cc1cccc(-c2noc(-c3ccc(NCc4ccccc4)c([N+](=O)[O-])c3)n2)c1`, the figure is inactive: 81%; as for `CC1=C(c2ccc(C)c(C)c2)S(=O)(=O)N=C1N1CCC(C(=O)NCc2ccccc2C)CC1`, inactive: 64%; as for `Cc1cc(C)c2oc(-c3ccc(NC(=O)COc4ccccc4C)cc3)nc2c1`, inactive: 78%. The figure for `Fc1ccc(CSc2nncn3c2cc2occc23)c(Cl)c1` is inactive: 88%. As for `CCOc1ccc(CCNC(=O)c2cc3sccc3n2CC)cc1OCC`, the figure is inactive: 88%. `CCc1nc2ccc(C(=O)N3CCN(c4cc(C)ccc4C)CC3)cc2nc1CC`: the survival is inactive: 65%. As to `CC1=C(C(N)=O)C(c2cccc(Br)c2)n2nc(SCc3ccccc3Cl)nc2N1` (centres undefined), the survival was inactive: 89%. As for `COc1cc(C2C(C(=O)Nc3ccc(Cl)cc3)=C(C)Nc3nc(SC)nn32)cc(OC)c1OC` (centres undefined), the figure is inactive: 80%; as for `COc1cc(CN(C(=O)Nc2cccc(Cl)c2)c2ccccn2)cc(OC)c1OC`, inactive: 82%.

On to `COC(=O)c1nnn(CC(=O)Nc2c(C)cccc2C)c1N`, for which the survival is inactive: 66%.

With `CC(C)CCNC(=O)c1ccc2nc(CCc3ccccc3)oc2c1`, the survival was inactive: 22%. As for `Cc1ccc(C(=O)NCC(c2cccs2)S(=O)(=O)c2ccccc2)cc1C` (centres undefined), the figure is inactive: 140%; as for `S=c1[nH]nc(CNc2cccc(Cl)c2)o1`, inactive: 115%; as for `CC(C)Nc1nc2c(S(=O)(=O)c3cccc(Cl)c3)nnn2c2ccsc12`, inactive: 92%. As for `CC(=O)c1cccc(NC(=O)CCn2nc(C)c(S(=O)(=O)N(C)C)c2C)c1`, the survival is inactive: 78%. As for `CCOC(=O)c1c(C)oc2nc(C)nc(NCCc3ccc(OC)c(OC)c3)c12`, the figure is inactive: 70%. The figure for `CCCCC(CC)CNC(=O)CCCCn1c(=O)[nH]c2ccsc2c1=O` (centres undefined) is inactive: 77%; for `COC(=O)c1sc(N2C(=O)c3oc4ccc(C)cc4c(=O)c3C2c2ccc(O)c(OC)c2)nc1C` (centres undefined) it is inactive: 150%; for `COc1ccc(OCc2nnc(SCC(=O)NCc3ccco3)o2)cc1` it is inactive: 92%. As for `COC(=O)c1ccc(C(=O)OC)c(NC(=O)c2c(-c3ccccc3)noc2C)c1`, the figure is inactive: 119%; as for `COc1ccc(CCNc2nc(SCc3ccccc3F)nc3ccccc23)cc1OC`, inactive: 87%. On to `CN(c1ccc(C(=O)N2CCc3ccccc3C2)cc1)S(C)(=O)=O`, for which the survival was inactive: 116%. In the case of `CCc1ccc(NC(=O)C2CCCN2S(=O)(=O)c2ccc3nc(-c4ccccc4)[nH]c3c2)cc1` (centres undefined), the survival was inactive: 96%. The figure for `Cc1csc2nc(COc3ccc(NC(=O)C(C)C)cc3)cc(=O)n12` is inactive: 92%; for `CCOC(=O)Cc1c(C)nc2cc(-c3ccc(C(C)(C)C)cc3)nn2c1C` it is active: -2%. The figure for `Cn1c(=O)n(CC(=O)O)c(=O)c2c1nc1n2CCCN1c1ccc(Cl)cc1` is inactive: 94%; for `CCOC(=O)c1c(NC(=O)CSc2nc(-c3ccc(OC)cc3)cc(C(F)(F)F)n2)sc(C)c1C` it is inactive: 77%. As for `Cc1ccc(NC(=O)c2c3c(nc4ccccc24)C(=O)N(C2CCCCC2)C3)cc1F`, the figure is inactive: 66%; as for `Cc1ccccc1NC(=O)CC1NCCNC1=O` (centres undefined), inactive: 128%; as for `C=CCc1ccccc1OCc1nc2ccc(C)cc2[nH]1`, inactive: 78%. For the compound `COc1ccc(-n2ncc(C(=O)N3CCN(C4CCCCC4)CC3)c2C2CCN(C(=O)OC(C)(C)C)CC2)cc1`, the survival is inactive: 67%.

As for `COc1ccc(C2CC(=O)c3cnc4c(-c5ccc(F)cc5)c(C)nn4c3C2)cc1OC` (centres undefined), the survival was inactive: 74%. As for `CCN(CC)S(=O)(=O)c1ccc2c(c1)c(=O)c(C(=O)NCCc1ccccc1)cn2C`, the figure is inactive: 94%. The figure for `CCOc1ccccc1NC(=O)c1cc2cc3cc(C)ccc3nc2s1` is inactive: 81%.

As to `COc1ccc(-n2c(SCC(=O)NCc3ccco3)nc3c([nH]c4ccccc43)c2=O)cc1`, the survival is inactive: 75%. The figure for `CCCNC(=O)CSc1c2c(nc3ccc(Cl)cc13)CCCC2` is inactive: 72%; for `CCOC(=O)c1cc2c(=O)n3ccccc3nc2n(Cc2ccco2)c1=NC(=O)c1cccc(C)c1` it is inactive: 67%. The figure for `CCCn1c2ccccc2c2cnn(CC(=O)N(CC)c3cc(C)ccc3C)c(=O)c21` is inactive: 90%; for `O=C(O)CN1C(=O)/C(=N\N2C(=O)CSC2=S)c2ccccc21` it is inactive: 90%. The figure for `Cc1ccc(NC(=O)CSc2nc3ccccc3c(=O)n2CCC(=O)NC2CCCCC2)cc1C` is inactive: 93%. Regarding `CCOc1ccc(NC(=O)CC2C(=O)N(c3ccccc3)C(=O)N2C2CCCC2)cc1` (centres undefined), the survival was inactive: 80%. As for `Cc1cccc(N2CCN(C(=O)c3cnn(-c4ccc(F)cc4F)c3C3CCN(C(=O)OC(C)(C)C)CC3)CC2)c1C`, the figure is inactive: 99%; as for `Cc1ccc(CNC(=O)Cn2nc(N3CCN(c4ccccc4)CC3)ccc2=O)cc1`, inactive: 55%; as for `CCc1ccccc1NC(=O)c1ccc(Cn2nc(N3CCN(c4ccccc4)CC3)ccc2=O)o1`, inactive: 70%. The figure for `Cc1cc(=O)n(Cc2ccccc2)c2c1c(C)nn2-c1ccccc1` is inactive: 72%; for `Cc1ccc(NC(=O)Nc2cn(C)c(=O)c3ccccc23)c(Cl)c1` it is inactive: 69%; for `Cc1cccc(N2CCN(C(=O)C3CCN(S(=O)(=O)c4c(C)noc4/C=C/c4ccccc4F)CC3)CC2C)c1` (centres undefined) it is inactive: 74%. As for `Cc1ccc2oc(=O)c3cnn(CC(=O)N4CCN(c5ccccc5F)CC4)c3c2c1`, the figure is inactive: 92%. In the case of `Cc1nc2c3ccccc3nc(NNC(=O)CCC(=O)N3CCN(c4cc(Cl)ccc4C)CC3)n2n1`, the survival is inactive: 89%. The figure for `COCc1cc(C)nc2sc(C(=O)Nc3ccc(C(C)=O)cc3)c(N)c12` is inactive: 96%; for `COc1ccc(OCC(=O)Nc2cccc(C(=O)OCc3cc(=O)n4nc(C)sc4n3)c2)cc1` it is inactive: 136%. The figure for `COc1cccc(NC(=O)c2sc3nc(C)c(C(=O)Nc4ccc(C)cc4C)c(-c4ccco4)c3c2N)c1` is inactive: 107%; for `CCc1cccc(NC(=O)CSc2nc3ccccc3nc2N2CCCCC2)c1` it is active: -13%. On to `CNC(=O)CCCN1C(=O)CCn2nc(-c3cn(C)c4ccccc34)cc21`, for which the survival was inactive: 133%. As for `COC(=O)c1ccc2c(=O)n(CCCCCC(=O)N3CCN(c4cc(C)ccc4C)CC3)c(=O)[nH]c2c1`, the figure is inactive: 84%; as for `CCOC(=O)c1c(NC(=O)/C=C/c2ccc(OCC)cc2)sc(C(C)=O)c1C`, inactive: 88%; as for `Cc1nn(-c2ccccc2)c2sc(C(=O)Nc3cccc(Cl)c3)cc12`, active: 5%.

`COc1cc2nc(NCCc3ccccc3)n3nc(-c4cccnc4)nc3c2cc1OC`: the survival is inactive: 122%.

In the case of `CCC(=O)N1CCc2cc(CNS(=O)(=O)c3ccc(C(C)C)cc3)ccc21`, the survival is inactive: 77%. The figure for `Cc1ccc(C)c(N2CCN(C(=O)CCS(=O)(=O)c3cc(Br)cc4c3N(C(=O)C3CC3)CC4)CC2)c1` is inactive: 80%.

The values are drawn from PubChem BioAssay AID463173 (ICCB-Longwood Screening Facility, Harvard Medical School, 2010).
